In PubChem BioAssay AID624418 (National Center for Advancing Translational Sciences (NCATS), 2012):
Values joined by “and” are separate entries in the source; they are usually repeats but may differ in a detail not shown here. Equal values may be shown once. About 530 (0.13%) of roughly 410,000 compounds were called active. The inconclusive results got no clear call from the source; some entries with a clear call stand among them for comparison. The call rests on the fitted dose curve; in most records, active means well fitted inhibition curve with a large enough effect; inconclusive means small, poorly fitted or top-dose-only effect, or another doubt; inactive means no such curve, though single readings can be large or run the other way. Where the call is inconclusive, the potency comes from a doubtful curve fit.

Assay: qHTS of GLP-1 Receptor Inverse Agonists: Cytotox Screen
Details: HEK293 cAMP-luciferase reporter cells, luminescence, 24 h; activity change, negative = inhibition: at 38.3 µM (top of the series) unless noted
Summary of the method: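 Cells in DMEM/10% Nu serum/1% pen-strep, 1536-well format. Pre-incubated 12 h, dosed with 23 nL compound, incubated a further 24 h. Luciferase detection, 12 min at room temp, luminescence.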
On the % scale 0 is the no-effect control and ±100 the full control effect; potency means the concentration at half of the fitted maximal effect.

SMILES | Potency | activity change, negative = inhibition
O=[N+]([O-])c1cc(-c2nnc(Nc3ccc(O)cc3)c3ccccc23)ccc1N1CCOCC1 | inconclusive: 11.2 µM [inhibitor, partial curve] | –
O=C(NC(NC(=S)Nc1ccc(Cl)c(Cl)c1)C(Cl)(Cl)Cl)c1ccco1 (stereo not drawn) | inconclusive: 20 µM [inhibitor, single point] | –
FC(F)(F)c1cccc(-c2cc(C3CCNCC3)[nH]n2)c1 | – | inconclusive: -33.5% [inhibitor]
O=C(NCC(c1cccs1)N1CCc2ccccc21)c1ccccc1 (stereo not drawn) | inconclusive: 28.2 µM [inhibitor, single point] | –
CCN(CCN(C)C)C(=O)C1CCN(S(=O)(=O)c2c(C)noc2/C=C/c2ccccc2F)CC1 | inconclusive: 28.2 µM [inhibitor, single point] and inconclusive: 2.51 µM [inhibitor, partial curve, poor fit] | –
CCOC(=O)c1ccc(NC(=O)c2ccc(C)c(S(=O)(=O)N3CCOCC3)c2)cc1 | inconclusive: 15.8 µM [inhibitor, partial curve, poor fit] | –
COc1ccc(OC)c(NC(=S)N(CCc2c(C)[nH]c3ccccc23)Cc2cccs2)c1 | inactive | –
CCN1/C(=C/c2ccc3cc(C)ccc3[n+]2CC)Sc2cc(C)ccc21 | inconclusive: 10 µM [inhibitor, partial curve] | –
Cc1cc(C)cc(-n2ccn(CC(=O)Nc3ccccc3F)c(=O)c2=O)c1 | inactive | –
O=C(NCCOc1nc(N2CCCCC2)nc(N2CCCCC2)n1)Nc1ccccc1 | inactive | –
CCc1ccc(N(CC(=O)NC2CCCC2)C(=O)CCC(=O)Nc2ccccn2)cc1 | inactive | –
Cc1c(C(=O)NCC(c2ccco2)N2CCCC2)sc2ccccc12 (stereo not drawn) | inactive | –
CSc1ncc(C(=O)Nc2cc(Cl)ccc2C)c(-c2ccccc2)n1 | inactive | –
CCCCCCC[C@@H](C/C=C/CCC(=O)N(C)C/C(=C/Cl)C/C(=C\C(=O)N1C[C@H](O)CC1=O)OC)OC | inactive | –
Cc1ccc(Nc2c(-c3ccccn3)nc3ccc(C)cn23)cc1 | inconclusive: 22.4 µM [inhibitor, single point] | –
Cc1ccc(N=Nc2c(N)n(-c3ccccc3)[nH]c2=O)cc1 | inconclusive: 10 µM [inhibitor, partial curve, poor fit] | –
CN1CCN(/C=C2\SC(=S)NC2=O)CC1 | inconclusive: 8.91 µM [inhibitor, partial curve] | –
CCOC(=O)c1sc(NC(=O)c2ccc(Cl)s2)cc1C | inactive | –
COc1ccccc1Nc1ccc(N)cc1 | inconclusive: 11.2 µM [inhibitor, single point] | –
OC[C@H]1OC(Nc2ccc(N=Nc3ccccc3)cc2)[C@@H](O)[C@@H](O)[C@@H]1O (stereo partly drawn) | inconclusive: 10 µM [inhibitor, single point] | –
COc1ccc(/C=C/C(=O)Nc2ccc3nc(N4CCCCC4)cc(C)c3c2)cc1OC | inconclusive: 28.2 µM [inhibitor, single point] | –
COc1ccc(NC(=O)Cn2nc(C(=O)O)c3ccccc3c2=O)cc1Cl | inactive | –
C/C(N=Nc1nc2ccccc2s1)=N\Nc1ccccc1O | inconclusive: 10 µM [inhibitor, partial curve, poor fit] | –

SMILES | Potency | activity change, negative = inhibition
COc1ccc(-c2csc(N(CCCN(C)C)C(=O)c3ccc(C(C)(C)C)cc3)n2)cc1 | inconclusive: 3.55 µM [inhibitor, single point] | –
CCOC(=O)N1CCN(C(=O)c2ccccc2N(Cc2ccccc2)S(=O)(=O)c2ccc(OC)cc2)CC1 | inconclusive: 2.82 µM [inhibitor, full curve] | –
NC(=S)N/N=C/c1ccccc1OCCSc1ccc(Cl)cc1 | active: 3.16 µM | –
CCOC(=O)c1cnc2ccc(OC)cc2c1Nc1ccc2c(c1)OCCO2 | inconclusive: 28.2 µM [inhibitor, single point] | –
COc1ccc(-n2cc(CNCCc3nc(C)cc(C)n3)c(-c3ccccc3Cl)n2)cc1 | inconclusive: 12.6 µM [inhibitor, single point] | –
N/C(=N\OC(=O)Nc1ccccc1)c1ncc([N+](=O)[O-])s1 | inconclusive: 28.2 µM [inhibitor, single point] | –
Cc1ccc(C)c(-n2c(-c3csc(C)c3)n[nH]c2=S)c1 | inconclusive: 28.2 µM [inhibitor, single point] | –
O=c1[nH]ncc(N2CCN(C(c3ccccc3)c3ccccc3)CC2)c1Cl | inactive | –
O=C(/C=C/c1ccc(Cl)cc1)OCC(=O)c1ccc[nH]1 | inactive | –
CC(=O)Nc1ccc(S(=O)(=O)Nc2cccc(-c3nc4ccccc4o3)c2)cc1 | inconclusive: 22.4 µM [inhibitor, single point] | –
O=C(CCN1C(=O)/C(=C\c2ccccc2)SC1=S)N1CCOCC1 | inconclusive: 2.51 µM [inhibitor, full curve] | –
CCOc1cc(/C=N/NC(=O)Cc2ccc(C(F)(F)F)cc2[N+](=O)[O-])ccc1O | inactive | –
O=C(Nc1ccccc1Cl)N1CCN(c2ccccn2)CC1 | inactive | –
Nc1c2c(nc3ccccc13)N(C1CCCCC1)CC2 | inconclusive: 12.6 µM [inhibitor, single point] | –
Cc1ccc(Cl)cc1NC(=O)Cn1cc2c(n1)CCCCC2 | inactive | –
Cc1ccc(-c2nnc(NCc3nc4ccccc4[nH]3)c3ccccc23)cc1S(=O)(=O)N1CCOCC1 | inconclusive: 12.6 µM [inhibitor, single point] | –
CCCc1nnc(NC(=O)CCS(=O)(=O)c2ccccc2)s1 | inconclusive: 10 µM [inhibitor, single point] | –
Cc1ccc(NC(=S)NCCc2ccccc2)c(C)c1 | inconclusive: 11.2 µM [inhibitor, single point] | –
COc1ccccc1-n1cnc2cc(NS(=O)(=O)c3ccc(Br)cc3)ccc21 | inconclusive: 7.08 µM [inhibitor, partial curve, poor fit] | –
CCCCCC(=O)NNC1=NCC(Cc2cccc(Cl)c2)S1 (stereo not drawn) | – | inactive: 9.93% [at 7.66 µM]
CCc1nnc(NC(=S)Nc2ccccc2)s1 | inconclusive: 1 µM [inhibitor, full curve, poor fit] | –
CCCCOC(=O)C1CN(c2ccccc2)N=C1C(C)=O (stereo not drawn) | inactive | –
CC(C)CC(=O)NC(=S)Nc1nc(-c2ccc(Cl)cc2)cs1 | inactive | –

SMILES | Potency | activity change, negative = inhibition
CC(C)Oc1ccc(Br)cc1/C=N\NC(N)=S | active: 2.51 µM | –
CCC(C)c1ccc(NC(=S)Nc2ccc(OC)c(OC)c2)cc1 (stereo not drawn) | inconclusive: 20 µM [inhibitor, single point] | –
CCSc1nnc(-c2cccnc2)n1-c1ccc(C)c(Cl)c1 | inconclusive: 0.891 µM [inhibitor, full curve, poor fit] | –
COc1cc(OC)c2ccc(=O)oc2c1C(CC(=O)N1CCCC1)c1ccc2c(c1)OCO2 (stereo not drawn) | inconclusive: 12.6 µM [inhibitor, single point] | –
O=C(N/N=C/c1cc([N+](=O)[O-])ccc1O)c1ccc(COc2ccc3c(c2)CCC3)o1 | inconclusive: 3.98 µM [inhibitor, full curve, poor fit] | –
O=C(Nc1cc(S(=O)(=O)N2CCCCC2)ccc1Cl)c1ccccc1NS(=O)(=O)c1ccc(F)cc1 | inconclusive: 12.6 µM [inhibitor, partial curve, poor fit] | –
Oc1ccccc1C1NN=C(c2ccccc2)S1 (stereo not drawn) | inconclusive: 20 µM [inhibitor, single point] | –
CCCCN(CC)CCNC(=O)C1CCN(c2nnc(C)c3c(C)n(-c4ccc(C)cc4)nc23)CC1 | inconclusive: 8.91 µM [inhibitor, partial curve, poor fit] | –
COc1ccc(CCNC(=O)C2CC3Cn4c(nc5ccccc54)C3N2Cc2ccccc2)cc1 (stereo not drawn) | inconclusive: 25.1 µM [inhibitor, partial curve, poor fit] | –
O=C(CCc1n[nH]c(=O)[nH]c1=O)N1CCCCC1 | inconclusive: 11.2 µM [inhibitor, single point] | –
COc1ccccc1-n1c(Cc2cccs2)n[nH]c1=S | inactive | –
Cc1ccc(NC(=O)c2ccc([N+](=O)[O-])o2)cc1C | inconclusive: 12.6 µM [inhibitor, single point] | –
S=C(NCC1(c2ccccc2)CCCC1)Nc1ccccc1 | inconclusive: 4.47 µM [inhibitor, full curve, poor fit] | –
COc1ccc(CCN2C(=O)CSC2=S)cc1OC | inconclusive: 12.6 µM [inhibitor, partial curve, poor fit] | –
COc1cc2c(cc1NC(=S)Nc1cccc(C)c1)oc1ccccc12 | inconclusive: 28.2 µM [inhibitor, single point] | –
COc1ccccc1N1CCN(S(=O)(=O)CCNC(=O)Cc2ccc(F)cc2)CC1 | inconclusive: 12.6 µM [inhibitor, partial curve, poor fit] | –
N#C/C(=N\Nc1ccc(Cl)c(Cl)c1)C(=O)C1CC1 | inconclusive: 8.91 µM [inhibitor, partial curve] | –
CCN(CC)C(=O)CSc1nnc(-c2cccnc2)n1Cc1ccccc1 | inactive | –
CN1CCCC1CCNC1C2CC3CC(C2)CC1C3 (stereo not drawn) | inconclusive: 15.8 µM [inhibitor, single point] | –
Cc1ccccc1-c1cc(C(=O)N2CCCC2)c2ccccc2n1 | inactive | –
CCc1ccc2nc(/N=C(\N)NC(=O)c3ccccc3)nc(C)c2c1 | inactive | –
COc1cc(/C=N/NC(=S)NC2CC3C=CC2C3)cc(OC)c1OC (stereo not drawn) | inconclusive: 3.16 µM [inhibitor, partial curve, poor fit] | –
